In PubChem BioAssay AID360 (National Center for Advancing Translational Sciences (NCATS), 2006):
Out of some 48,000 compounds screened, about 550 (1.1%) were called active. Roughly 4% stayed inconclusive and do not appear here. Rule as the data show it: active = potency below about 15 µM; inconclusive = mostly about 16 µM to 33 µM; inactive = weaker than that. Some of the results follow.

Molecular target: Lysosomal acid glucosylceramidase (Homo sapiens) (UniProt P04062)
Experiment: Glucocerebrosidase;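 also: the screen sought inhibitors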
Details: purified enzyme, resorufin glucoside fluorescence (screen aimed at inhibitors), 20 min
Text: NCGC Assay Overview: Beta-glucocerebrosidase catalyzes the hydrolysis of beta-glucocerebroside to glucose and ceramide. The inherited deficiency of beta-glucocerebrosidase results in Gaucher disease, which is characterized by a wide variety of symptoms including hepatosplenomegaly, anemia, thrombocytopenia, bony lesions and bone marrow infiltration with characteristic storage cells, known as Gaucher cells. There are also forms of the disorder affecting the central nervous system. Patients with the same genotypes can manifest with diverse clinical presentations and it is believed that improper folding and trafficking of beta-glucocerbrosidase may contribute to the phenotypes observed. Low molecular weight molecules, acting as chaperones, may potentially restore trafficking of misfolded beta-glucocerebrosidase from the endoplasmic reticulum to the lysosomes, thereby enhancing functional lysosomal beta-glucocerebrosidase activity. Using normal beta-glucocerebrosidase, an assay was developed to screen for small molecule inhibitors that could potentially act as molecular chaperones on the mutant forms [developed with NIH investigator Dr. Ellen Sidransky's laboratory]. Two pro-fluorescent substrates were chosen for two screens against a small molecule library. One beta-glucocerebrosidase assay used Resorufin beta-D-Glucopyranoside (Marker Gene Technology Inc.), generating a red fluorescent product. The second assay used Fluorescein di-beta-D-Glucopyranoside, generating a blue fluorescent product. […] The IC50 values of Conduritol B Epoxide, a known glucocerebrosidase inhibitor, were determined to be 87.5 uM and 117 uM, respectively. The use of two difference pro-fluorescent substrates in the screens helped to eliminate false positives. All compounds were screened in a titration series resulting in AC50s (e.g., IC50s or EC50s).
NCGC Assay Protocol Summary: Both enzyme and substrate were diluted in buffer composed of 50mM citric acid/KH2PO4, 10mM sodium taurocholate and 0.01% tween-20 at pH 5.9. The final concentration of the enzyme was 0.2 nM in both assays. The compound library was titrated in 7 to 15 concentrations for the primary screens with a final concentration ranging from 0.6 nM to 50 uM. This particular assay protocol is for the "red" substrate, and it was performed in 1536-well plate format as follows: Red fluorescence substrate assay: 2 uL enzyme 23 nL compound 1 uL substrate (final concentration of 30 uM) Incubate at room temperature (RT) for 20 minutes Read the plate in Viewlux plate reader (Ex=548(7) and Em=600(10)).
Potency is read from the fitted curve at half-maximal effect.

UniProt P04062, sequence (P04062 whole entry, looked up): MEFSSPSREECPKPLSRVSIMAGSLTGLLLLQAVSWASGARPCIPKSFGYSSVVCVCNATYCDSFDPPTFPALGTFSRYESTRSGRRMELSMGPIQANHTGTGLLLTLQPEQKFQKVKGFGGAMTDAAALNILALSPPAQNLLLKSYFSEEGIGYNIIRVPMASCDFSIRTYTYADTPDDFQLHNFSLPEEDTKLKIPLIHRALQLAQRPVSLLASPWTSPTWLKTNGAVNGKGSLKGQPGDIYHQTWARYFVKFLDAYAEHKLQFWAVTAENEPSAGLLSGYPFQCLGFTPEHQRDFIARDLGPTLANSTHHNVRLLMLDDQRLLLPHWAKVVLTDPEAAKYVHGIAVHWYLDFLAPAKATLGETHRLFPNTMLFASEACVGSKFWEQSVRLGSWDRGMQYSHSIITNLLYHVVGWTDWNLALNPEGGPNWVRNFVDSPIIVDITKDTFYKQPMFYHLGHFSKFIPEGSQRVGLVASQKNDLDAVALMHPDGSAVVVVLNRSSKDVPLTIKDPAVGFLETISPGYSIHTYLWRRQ

Potency, inactive:
COCC(=O)Nc1sc2c(c1C(=O)OC)CCCC2 > 76.9 µM
COc1ccc(C(=O)CSc2nnc(-c3ccoc3C)n2CC2CCCO2)cc1 (centres undefined) > 76.9 µM
c1ccc(Cc2ccc(OCCn3cncn3)cc2)cc1 > 76.9 µM
CC(=O)Nc1cc(NC(C)=O)c2nc(N)sc2c1 > 76.9 µM
C=CCn1c(N)cc(=O)nc1SCC(=O)N1CCN(c2ccc(F)cc2)CC1 > 76.9 µM
CCOc1ccc(Br)cc1S(=O)(=O)N1CC(C)OC(C)C1 (centres undefined) > 76.9 µM
CCOC(=O)N1CCN(C(=O)c2n[nH]c(=O)c3ccccc23)CC1 > 76.9 µM
CC(C)COP(=O)(c1ccc(N(C)C)cc1)C(O)c1ccccn1 (centres undefined) > 76.9 µM
CC(=O)OCC(=O)Nc1ccc(Cl)cc1Cl > 76.9 µM
CCNc1nc(N2CCCCC2)nc(-n2nnc(C(=O)OCC)c2C)n1
COc1ccc(C2CC(=O)C3=C(C2)Nc2ncnn2C3c2ccccc2)cc1 (centres undefined) > 76.9 µM
O=C(Nc1ccc2c(c1)OCCO2)C1CCN(S(=O)(=O)c2cccc3nsnc23)CC1 > 76.9 µM
CCN(CC)CCn1c(OC)cc(=O)[nH]c1=O > 76.9 µM
COC(=O)c1sc(NC(=O)c2ccco2)nc1C > 76.9 µM
Cc1sc2nc(-c3ccco3)oc(=O)c2c1C > 76.9 µM
O=C(COn1nnc2ccc(C(F)(F)F)cc21)Nc1nnc(-c2ccccc2)o1 > 76.9 µM
COc1cccc(-n2nnnc2SCC(=O)NCc2ccc3c(c2)OCO3)c1 > 76.9 µM
Oc1ccc(-c2cccc(-c3ccc(O)cc3)n2)cc1 > 76.9 µM
CCOc1ccc(C2C(C#N)=C(N)Oc3cc(C)n(CCN(C)C)c(=O)c32)cc1OCC (centres undefined) > 76.9 µM
O=S(=O)(c1ccc(OCC(O)CN2CCN(c3ccccc3Cl)CC2)cc1)N1CCOCC1 (centres undefined) > 76.9 µM
COc1ccc(C(=O)O)cc1F > 76.9 µM
COCCn1c(=NC(=O)CSCC(=O)Nc2cc(C)on2)sc2cc(C(=O)OC)ccc21 > 76.9 µM
CC(C)(C)Nc1nc(SCc2ccccc2)nc(N2CCOCC2)n1 > 76.9 µM
O=C(CCCn1c(=S)[nH]c2ccccc2c1=O)NC1CCCC1
Cc1ccc(-c2nc(NC(=O)CSc3nnnn3-c3ccccc3)ns2)cc1 > 76.9 µM
CC(C)CNC(=O)c1cccc(NC(=O)C2CCCO2)c1 (centres undefined) > 76.9 µM
COc1ccc(-c2nc(SCC(=O)NCc3ccco3)c(-c3ccccc3)[nH]2)cc1OC > 76.9 µM
CC(=O)C1=C(C)NC(=O)NC1c1cccc(O)c1 (centres undefined) > 76.9 µM
CC(=O)C(Sc1nc(-c2ccco2)nc2c1c(=O)n(C)c(=O)n2C)C(=O)N(C)C (centres undefined) > 76.9 µM
Cc1ccccc1C(=O)c1cccn1CC(=O)N1CCCCCC1 > 76.9 µM
c1ccc2nc3c(nc2c1)CCc1nonc1-3 > 76.9 µM
CCCC(C)C(=O)Nc1ccc(Cl)cn1 (centres undefined) > 76.9 µM
CCOc1ccccc1C(=O)NC(C(=O)Nc1ccccc1N1CCOCC1)C(C)C (centres undefined) > 76.9 µM
CCOC(=O)NC1C=CS(=O)(=O)C1 (centres undefined) > 76.9 µM
Nc1cccc(S(=O)(=O)c2cccc(N)c2)c1 > 76.9 µM
CCN1CCN(S(=O)(=O)c2ccc(S(=O)(=O)NCC3CCCO3)cc2)CC1 (centres undefined) > 76.9 µM
Cc1oc(C)c(C(=O)NCCCC(=O)O)c1C(=O)NCCCC(=O)O > 76.9 µM
CCOC(=O)C1CCCN(C(=O)Nc2cccc(Cl)c2)C1 (centres undefined) > 76.9 µM
CCOC(=O)c1c(NC(=O)CSc2nnc(CN3CCOCC3)n2C)sc2c1CCCC2 > 76.9 µM
CN(Cc1nc(-c2ccncc2)no1)S(=O)(=O)c1ccc(Cl)cc1 > 76.9 µM
O=S(=O)(c1ccc2nc(COc3ccc(Cl)cc3Cl)[nH]c2c1)N1CCOCC1 > 76.9 µM
O=C(c1ccc(N2CCCC2=O)cc1)N1CCN(c2ccccc2)CC1 > 76.9 µM
N#Cc1cn(-c2ccccc2)nc1-c1ccc2c(c1)OCCO2 > 76.9 µM
N#CCCN(Cc1cccnc1)S(=O)(=O)c1ccc(S(=O)(=O)N2CCCCCC2)cc1 > 76.9 µM
CN1CCCCCC1=Nc1ccccc1C#N > 76.9 µM
CS(=O)(=O)Nc1ccc2c(c1)C(=O)OC2 > 76.9 µM
COc1ccc(CNC(=O)c2cc(-c3ccco3)on2)cc1 > 76.9 µM
Cc1cccc(C)c1NC(=O)CS(=O)CC(=O)NC1CCCc2ccccc21 (centres undefined) > 76.9 µM
COc1ccc2[nH]c(=O)c(CN(C(C)=O)c3cccc(C)c3)cc2c1 > 76.9 µM
Fc1ccc(Cn2nnnc2C(c2cccs2)N2CCCCCC2)cc1 (centres undefined) > 76.9 µM
Cc1cc(C)cc(-n2ccnc2SCC(=O)Nc2nccs2)c1 > 76.9 µM
O=C(O)CSCc1nc2ccccc2s1 > 76.9 µM
CCOC(=O)C1=C(N)Oc2cc(C)n(C)c(=O)c2C1c1ccncc1 (centres undefined) > 76.9 µM
O=c1cc(Nc2ccc3c(c2)OCO3)[nH]c(=O)n1-c1ccc(Br)cc1 > 76.9 µM
COc1ccc2cc3cc(C(=O)NCCc4ccc(OC)c(OC)c4)oc3nc2c1 > 76.9 µM
c1ccc2c(c1)nnn2-c1ncnc2sc3c(c12)CCCC3 > 76.9 µM
CCC(=O)Nc1cccc(NC(=O)c2ccc3c(c2)OCO3)c1 > 76.9 µM
CC(=O)N1CC2(C)CN(C(C)=O)CC(C)(C1)C2 > 76.9 µM
O=C1CCCCCN1Cc1nnc(SCc2nc3ccccc3s2)n1-c1ccccn1 > 76.9 µM
